Measured values: the supplement of paper PMC8728848
The other results are listed elsewhere or left out.

Columns and labels:
Assay in all cases: glycan array binding signal (z-score within array); higher = stronger binding
Conditions in all cases: glycan notation: IUPAC condensed, linker removed
[1] = molecular target: Gal(b1-3)GlcNAc(b1-2)Man(a1-3)[Gal(b1-3)GlcNAc(b1-2)Man(a1-6)]Man(b1-4)GlcNAc(b1-4)[Fuc(a1-6)]GlcNAc
Outline: (§1)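 Columns mapping to the same glycan were averaged after glycan names were converted to IUPAC-condensed notation. The data come from 3228 arrays in the Consortium for Functional Glycomics database, limited to those with an available protein sequence. Binding is reported as a within-array Z-score averaged across arrays of one protein sequence and across linkers.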

[2] = molecular target: Gal(b1-3)GlcNAc(b1-2)Man(a1-3)[GlcNAc(b1-4)][Gal(b1-3)GlcNAc(b1-2)Man(a1-6)]Man(b1-4)GlcNAc(b1-4)GlcNAc
Outline: as §1

[3] = molecular target: Gal(b1-3)GlcNAc(b1-2)[Gal(b1-3)GlcNAc(b1-6)]Man(a1-6)[Gal(b1-3)GlcNAc(b1-2)Man(a1-3)]Man(b1-4)GlcNAc(b1-4)GlcNAc
Outline: as §1

[4] = molecular target: Gal(b1-3)GlcNAc(b1-3)Gal(b1-3)GlcNAc
Outline: as §1

[5] = molecular target: Gal(b1-3)GlcNAc(b1-3)Gal(b1-4)Glc
Outline: as §1

[6] = molecular target: Gal(b1-3)GlcNAc(b1-3)Gal(b1-4)GlcNAc
Outline: as §1

[7] = molecular target: Gal(b1-3)GlcNAc(b1-3)Gal(b1-4)GlcNAc(b1-2)Man(a1-3)[Gal(b1-3)GlcNAc(b1-3)Gal(b1-4)GlcNAc(b1-2)Man(a1-6)]Man(b1-4)GlcNAc(b1-4)GlcNAc
Outline: as §1

[8] = molecular target: Gal(b1-3)GlcNAc(b1-3)Gal(b1-4)GlcNAc(b1-2)[Gal(b1-3)GlcNAc(b1-3)Gal(b1-4)GlcNAc(b1-6)]Man(a1-6)[Gal(b1-3)GlcNAc(b1-3)Gal(b1-4)GlcNAc(b1-2)Man(a1-3)]Man(b1-4)GlcNAc(b1-4)[Fuc(a1-6)]GlcNAc
Outline: as §1

[9] = molecular target: Gal(b1-3)GlcNAc(b1-3)Gal(b1-4)GlcNAc(b1-3)Gal(b1-4)GlcNAc(b1-2)[Gal(b1-3)GlcNAc(b1-3)Gal(b1-4)GlcNAc(b1-3)Gal(b1-4)GlcNAc(b1-6)]Man(a1-6)[Gal(b1-3)GlcNAc(b1-3)Gal(b1-4)GlcNAc(b1-3)Gal(b1-4)GlcNAc(b1-2)Man(a1-3)]Man(b1-4)GlcNAc(b1-4)[Fuc(a1-6)]GlcNAc
Outline: as §1

[10] = molecular target: Gal(b1-3)GlcNAc(b1-3)Gal(b1-4)GlcNAc(b1-6)[Gal(b1-3)GlcNAc(b1-3)]Gal(b1-4)Glc
Outline: as §1

[11] = molecular target: Gal(b1-3)GlcNAc(b1-3)Gal(b1-4)[Fuc(a1-3)]GlcNAc
Outline: as §1

[12] = molecular target: Gal(b1-3)GlcNAc(b1-3)Gal(b1-4)[Fuc(a1-3)]GlcNAc(b1-6)[Gal(b1-3)GlcNAc(b1-3)]Gal(b1-4)Glc
Outline: as §1

[13] = molecular target: Gal(b1-3)GlcNAc(b1-3)GalNAc
Outline: as §1

[14] = molecular target: Gal(b1-3)GlcNAc(b1-6)Gal(b1-4)GlcNAc
Outline: as §1

[15] = molecular target: Gal(b1-3)GlcNAc(b1-6)GalNAc
Outline: as §1

[16] = molecular target: Gal(b1-3)GlcNAc(b1-6)[Gal(b1-3)]GalNAc
Outline: as §1

Gal(b1-3)GlcNAc6S = molecular target: Gal(b1-3)GlcNAc6S
Outline: as §1

[17] = molecular target: Gal(b1-3)[Fuc(a1-4)]GlcNAc
Outline: as §1

[18] = molecular target: Gal(b1-3)[Fuc(a1-4)]GlcNAc(b1-2)Man
Outline: as §1

[19] = molecular target: Gal(b1-3)[Fuc(a1-4)]GlcNAc(b1-2)Man(a1-3)[Gal(b1-3)[Fuc(a1-4)]GlcNAc(b1-2)Man(a1-6)]Man(b1-4)GlcNAc(b1-4)[Fuc(a1-6)]GlcNAc
Outline: as §1

[20] = molecular target: Gal(b1-3)[Fuc(a1-4)]GlcNAc(b1-3)Gal(b1-3)[Fuc(a1-4)]GlcNAc
Outline: as §1

[21] = molecular target: Gal(b1-3)[Fuc(a1-4)]GlcNAc(b1-3)Gal(b1-4)[Fuc(a1-3)]GlcNAc
Outline: as §1

[22] = molecular target: Gal(b1-3)[Fuc(a1-4)]GlcNAc(b1-6)GalNAc
Outline: as §1

[23] = molecular target: Gal(b1-3)[GlcNAc(b1-6)]GalNAc
Outline: as §1

[24] = molecular target: Gal(b1-3)[Neu5Ac(a2-6)]GalNAc
Outline: as §1

[25] = molecular target: Gal(b1-3)[Neu5Ac(a2-6)]GlcNAc(b1-4)Gal(b1-4)Glc
Outline: as §1

[26] = molecular target: Gal(b1-3)[Neu5Ac(b2-6)]GalNAc
Outline: as §1

Gal(b1-4)Gal = molecular target: Gal(b1-4)Gal
Outline: as §1

[27] = molecular target: Gal(b1-4)GalNAc(a1-3)[Fuc(a1-2)]Gal(b1-4)GlcNAc
Outline: as §1

[28] = molecular target: Gal(b1-4)GalNAc(b1-3)[Fuc(a1-2)]Gal(b1-4)GlcNAc
Outline: as §1

Gal(b1-4)Glc = molecular target: Gal(b1-4)Glc
Outline: as §1

Gal(b1-4)Glc6S = molecular target: Gal(b1-4)Glc6S
Outline: as §1

Gal(b1-4)GlcNAc = molecular target: Gal(b1-4)GlcNAc
Outline: as §1

[29] = molecular target: Gal(b1-4)GlcNAc(a1-6)Gal(b1-4)GlcNAc
Outline: as §1

Gal(b1-4)GlcNAc(b1-2)Man = molecular target: Gal(b1-4)GlcNAc(b1-2)Man
Outline: as §1

[30] = molecular target: Gal(b1-4)GlcNAc(b1-2)Man(a1-3)Man(b1-4)GlcNAc(b1-4)GlcNAc
Outline: as §1

[31] = molecular target: Gal(b1-4)GlcNAc(b1-2)Man(a1-3)[Gal(b1-4)GlcNAc(b1-2)Man(a1-6)]Man(b1-4)GlcNAc(b1-4)GlcNAc
Outline: as §1

[32] = molecular target: Gal(b1-4)GlcNAc(b1-2)Man(a1-3)[Gal(b1-4)GlcNAc(b1-2)Man(a1-6)]Man(b1-4)GlcNAc(b1-4)[Fuc(a1-6)]GlcNAc
Outline: as §1

[33] = molecular target: Gal(b1-4)GlcNAc(b1-2)Man(a1-3)[Gal(b1-4)GlcNAc(b1-2)Man(a1-6)][Gal(b1-4)GlcNAc(b1-4)]Man(b1-4)GlcNAc(b1-4)[Fuc(a1-6)]GlcNAc
Outline: as §1

[34] = molecular target: Gal(b1-4)GlcNAc(b1-2)Man(a1-3)[Gal(b1-4)GlcNAc(b1-2)Man(a1-6)][GlcNAc(b1-4)]Man(b1-4)GlcNAc(b1-4)[Fuc(a1-6)]GlcNAc
Outline: as §1

[35] = molecular target: Gal(b1-4)GlcNAc(b1-2)Man(a1-3)[GlcNAc(b1-2)Man(a1-6)]Man(b1-4)GlcNAc(b1-4)GlcNAc
Outline: as §1

[36] = molecular target: Gal(b1-4)GlcNAc(b1-2)Man(a1-3)[GlcNAc(b1-4)][Gal(b1-4)GlcNAc(b1-2)Man(a1-6)]Man(b1-4)GlcNAc(b1-4)GlcNAc
Outline: as §1

[37] = molecular target: Gal(b1-4)GlcNAc(b1-2)Man(a1-3)[Man(a1-6)]Man(b1-4)GlcNAc(b1-4)GlcNAc
Outline: as §1

[38] = molecular target: Gal(b1-4)GlcNAc(b1-2)Man(a1-6)Man(b1-4)GlcNAc(b1-4)GlcNAc
Outline: as §1

[39] = molecular target: Gal(b1-4)GlcNAc(b1-2)Man(a1-6)[GlcNAc(b1-2)Man(a1-3)]Man(b1-4)GlcNAc(b1-4)GlcNAc
Outline: as §1

B1: AidA (Burkholderia cenocepacia) (protein)
chain: MSRVTDVLVSFDTETILKKYPNPSKNPAAPTLIDWRYVYMVTNQDNVISGQAGGELDLKAQVGDLIRWRETSLSLGFENQVVFYKFIGNVGNDLISTPTPRVAEASIPVPNTSKPEVPTCQKVANYYWSSECLKVGRVTYHFQFQIIDRNCQSQGCFSWDPFISIHN
glycan array binding signal (z-score) [1]: -0.149 | glycan array binding signal (z-score) [2]: 0.522 | glycan array binding signal (z-score) [3]: -0.266 | glycan array binding signal (z-score) [4]: 0.167 | glycan array binding signal (z-score) [5]: 0.229 | glycan array binding signal (z-score) [6]: -0.233 | glycan array binding signal (z-score) [7]: -0.494 | glycan array binding signal (z-score) [8]: 0.968 | glycan array binding signal (z-score) [9]: -0.264 | glycan array binding signal (z-score) [10]: -0.359 | glycan array binding signal (z-score) [11]: -0.105 | glycan array binding signal (z-score) [12]: -0.264 | glycan array binding signal (z-score) [13]: -0.553 | glycan array binding signal (z-score) [14]: -0.05 | glycan array binding signal (z-score) [15]: -0.128 | glycan array binding signal (z-score) [16]: -0.573 | glycan array binding signal (z-score) (Gal(b1-3)GlcNAc6S): -0.48 | glycan array binding signal (z-score) [17]: 0.331 | glycan array binding signal (z-score) [18]: -0.108 | glycan array binding signal (z-score) [19]: -0.137 | glycan array binding signal (z-score) [20]: -0.101 | glycan array binding signal (z-score) [21]: -0.392 | glycan array binding signal (z-score) [22]: 0.516 | glycan array binding signal (z-score) [23]: -0.282 | glycan array binding signal (z-score) [24]: 0.097 | glycan array binding signal (z-score) [25]: -0.165 | glycan array binding signal (z-score) [26]: -1.13 | glycan array binding signal (z-score) (Gal(b1-4)Gal): -0.042 | glycan array binding signal (z-score) [27]: 0.301 | glycan array binding signal (z-score) [28]: -0.557 | glycan array binding signal (z-score) (Gal(b1-4)Glc): -0.358 | glycan array binding signal (z-score) (Gal(b1-4)Glc6S): 0.406 | glycan array binding signal (z-score) (Gal(b1-4)GlcNAc): 0.139 | glycan array binding signal (z-score) [29]: -0.503 | glycan array binding signal (z-score) (Gal(b1-4)GlcNAc(b1-2)Man): -0.462 | glycan array binding signal (z-score) [30]: -0.97 | glycan array binding signal (z-score) [31]: 0.025 | glycan array binding signal (z-score) [32]: -0.076 | glycan array binding signal (z-score) [33]: 0.628 | glycan array binding signal (z-score) [34]: -0.279 | glycan array binding signal (z-score) [35]: -0.325 | glycan array binding signal (z-score) [36]: -0.59 | glycan array binding signal (z-score) [37]: -0.209 | glycan array binding signal (z-score) [38]: 0.348 | glycan array binding signal (z-score) [39]: -0.429
